Consider 6 compounds from the supplement of paper PMC9174493.

Structures are written as SMILES. The list shows a part of the results. Single values of this set are uncertain. Values with irradiation are relative to irradiated vehicle.

The subject of experiment [1] is A549-Dual. Put plainly: NF-kB reporter (SEAP) activity, viability-corrected, relative to vehicle (fold change vs vehicle); higher = more activation of STING-IRF / NF-kB immune response reporter.
The subject of experiment [2] is A549-Dual. Put plainly: ISRE reporter (Lucia luciferase) activity, viability-corrected, relative to vehicle (fold change vs vehicle); higher = more activation of STING-IRF / NF-kB immune response reporter.
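For NF-kB reporter (SEAP) activity, viability-corrected, relative to vehicle in this document: viability correction based on the alamar blue assay, with concentrations leaving 10% survival or less dropped.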

With `CC(C)Cc1ccc(C(C)C(=O)O)cc1.NCCCCC(N)C(=O)O` (stereo not given) [Ibuprofen Lysine], the NF-kB reporter was found to be 1.11 in the experiment with A549-Dual [1] (0.1 µM, irradiation: 8 Gy/4 fr); 0.993 in the experiment with A549-Dual [1] (0.1 µM, irradiation: none); 0.968 with A549-Dual [1] (0.3 µM, irradiation: 8 Gy/4 fr); 0.984 in the experiment on A549-Dual [1] (0.3 µM, irradiation: none); 1.06 in the experiment on A549-Dual [1] (1 µM, irradiation: 8 Gy/4 fr); 0.932 in the experiment on A549-Dual [1] (1 µM, irradiation: none). The NF-kB reporter in the experiment with A549-Dual [1] (3 µM, irradiation: 8 Gy/4 fr) was 0.957; in the experiment with A549-Dual [1] (3 µM, irradiation: none), 1; with A549-Dual [1] (10 µM, irradiation: 8 Gy/4 fr) it was 0.94; in the experiment on A549-Dual [1] (10 µM, irradiation: none), 1.08. The ISRE reporter in the experiment with A549-Dual [2] (0.1 µM, irradiation: 8 Gy/4 fr) is 0.901; in the experiment on A549-Dual [2] (0.1 µM, irradiation: none), 0.849; in the experiment with A549-Dual [2] (0.3 µM, irradiation: 8 Gy/4 fr), 0.815; with A549-Dual [2] (0.3 µM, irradiation: none) it was 0.623; in the experiment on A549-Dual [2] (1 µM, irradiation: 8 Gy/4 fr), 0.764; in the experiment on A549-Dual [2] (1 µM, irradiation: none) it was 0.758. The ISRE reporter was found to be 0.86 in the experiment with A549-Dual [2] (3 µM, irradiation: 8 Gy/4 fr); 0.836 in the experiment with A549-Dual [2] (3 µM, irradiation: none); 0.81 in the experiment on A549-Dual [2] (10 µM, irradiation: 8 Gy/4 fr); 0.796 with A549-Dual [2] (10 µM, irradiation: none).

Regarding `C[S+](C)CCC(N)C(=O)O.[Cl-]` (stereo not given), the NF-kB reporter in the experiment on A549-Dual [1] (0.1 µM, irradiation: 8 Gy/4 fr) worked out at 1.25; in the experiment on A549-Dual [1] (0.1 µM, irradiation: none), 1.19; with A549-Dual [1] (0.3 µM, irradiation: 8 Gy/4 fr) it was 1.2; in the experiment on A549-Dual [1] (0.3 µM, irradiation: none) it was 1.1; in the experiment on A549-Dual [1] (1 µM, irradiation: 8 Gy/4 fr), 1.22; in the experiment on A549-Dual [1] (1 µM, irradiation: none) it was 1.35. Further, the NF-kB reporter turned out to be 1.54 in the experiment with A549-Dual [1] (3 µM, irradiation: 8 Gy/4 fr); 1.11 with A549-Dual [1] (3 µM, irradiation: none); 1.98 in the experiment with A549-Dual [1] (10 µM, irradiation: 8 Gy/4 fr); 1.18 in the experiment with A549-Dual [1] (10 µM, irradiation: none). Besides, the ISRE reporter with A549-Dual [2] (0.1 µM, irradiation: 8 Gy/4 fr) amounted to 0.853; in the experiment on A549-Dual [2] (0.1 µM, irradiation: none) it was 0.941; in the experiment on A549-Dual [2] (0.3 µM, irradiation: 8 Gy/4 fr) it was 0.922; with A549-Dual [2] (0.3 µM, irradiation: none), 0.835; in the experiment on A549-Dual [2] (1 µM, irradiation: 8 Gy/4 fr), 0.967; in the experiment on A549-Dual [2] (1 µM, irradiation: none), 0.96. Also, the ISRE reporter turned out to be 1.23 in the experiment with A549-Dual [2] (3 µM, irradiation: 8 Gy/4 fr); 0.916 in the experiment with A549-Dual [2] (3 µM, irradiation: none); 1.33 in the experiment on A549-Dual [2] (10 µM, irradiation: 8 Gy/4 fr); 1.06 in the experiment with A549-Dual [2] (10 µM, irradiation: none).

As for `CC1(C)CCC(C)(C)c2cc(NC(=O)c3ccc(C(=O)O)cc3)ccc21` [Tamibarotene], the NF-kB reporter with A549-Dual [1] (0.1 µM, irradiation: 8 Gy/4 fr) came out at 1.31; in the experiment with A549-Dual [1] (0.1 µM, irradiation: none), 1.23; with A549-Dual [1] (0.3 µM, irradiation: 8 Gy/4 fr), 1.1; in the experiment on A549-Dual [1] (0.3 µM, irradiation: none), 1.48; with A549-Dual [1] (1 µM, irradiation: 8 Gy/4 fr), 0.998; with A549-Dual [1] (1 µM, irradiation: none), 1.74. The NF-kB reporter came out at 1.23 in the experiment with A549-Dual [1] (3 µM, irradiation: 8 Gy/4 fr); 1.35 in the experiment with A549-Dual [1] (3 µM, irradiation: none); 1.08 in the experiment with A549-Dual [1] (10 µM, irradiation: 8 Gy/4 fr); 1.09 in the experiment with A549-Dual [1] (10 µM, irradiation: none). Further, the ISRE reporter is 1.31 in the experiment with A549-Dual [2] (0.1 µM, irradiation: 8 Gy/4 fr); 1.65 in the experiment with A549-Dual [2] (0.1 µM, irradiation: none); 1.2 with A549-Dual [2] (0.3 µM, irradiation: 8 Gy/4 fr); 1.59 with A549-Dual [2] (0.3 µM, irradiation: none); 1.25 in the experiment with A549-Dual [2] (1 µM, irradiation: 8 Gy/4 fr); 1.76 in the experiment with A549-Dual [2] (1 µM, irradiation: none). Besides, the ISRE reporter with A549-Dual [2] (3 µM, irradiation: 8 Gy/4 fr) was 1.22; in the experiment with A549-Dual [2] (3 µM, irradiation: none), 1.48; in the experiment with A549-Dual [2] (10 µM, irradiation: 8 Gy/4 fr), 1.2; with A549-Dual [2] (10 µM, irradiation: none), 1.54.

On to `COc1c(O)cc2c(c1O)C1OC(CO)C(O)C(O)C1OC2=O` (stereo not given) [Bergenin], for which the NF-kB reporter in the experiment on A549-Dual [1] (0.1 µM, irradiation: 8 Gy/4 fr) came to 1.02; in the experiment on A549-Dual [1] (0.1 µM, irradiation: none), 1.7; in the experiment on A549-Dual [1] (0.3 µM, irradiation: 8 Gy/4 fr), 1.22; with A549-Dual [1] (0.3 µM, irradiation: none) it was 1.7; with A549-Dual [1] (1 µM, irradiation: 8 Gy/4 fr), 1.57; in the experiment with A549-Dual [1] (1 µM, irradiation: none), 1.28. Besides, the NF-kB reporter came to 1.92 in the experiment with A549-Dual [1] (3 µM, irradiation: 8 Gy/4 fr); 1.37 in the experiment on A549-Dual [1] (3 µM, irradiation: none); 0.968 with A549-Dual [1] (10 µM, irradiation: 8 Gy/4 fr); 0.574 in the experiment with A549-Dual [1] (10 µM, irradiation: none). Further, the ISRE reporter in the experiment with A549-Dual [2] (0.1 µM, irradiation: 8 Gy/4 fr) amounted to 1.04; in the experiment with A549-Dual [2] (0.1 µM, irradiation: none) it was 1.6; in the experiment with A549-Dual [2] (0.3 µM, irradiation: 8 Gy/4 fr) it was 1.04; with A549-Dual [2] (0.3 µM, irradiation: none), 1.52; in the experiment on A549-Dual [2] (1 µM, irradiation: 8 Gy/4 fr) it was 1.35; in the experiment with A549-Dual [2] (1 µM, irradiation: none) it was 1.09. The ISRE reporter in the experiment on A549-Dual [2] (3 µM, irradiation: 8 Gy/4 fr) was 1.21; in the experiment with A549-Dual [2] (3 µM, irradiation: none) it was 1.29; with A549-Dual [2] (10 µM, irradiation: 8 Gy/4 fr), 1.1; in the experiment with A549-Dual [2] (10 µM, irradiation: none), 0.967.

Regarding `O=S(=O)([O-])CCS.[Na+]` [Mesna], the NF-kB reporter in the experiment on A549-Dual [1] (0.1 µM, irradiation: 8 Gy/4 fr) stood at 0.971; with A549-Dual [1] (0.1 µM, irradiation: none), 1.01; in the experiment with A549-Dual [1] (0.3 µM, irradiation: 8 Gy/4 fr), 0.909; with A549-Dual [1] (0.3 µM, irradiation: none) it was 0.925; in the experiment with A549-Dual [1] (1 µM, irradiation: 8 Gy/4 fr), 0.838; with A549-Dual [1] (1 µM, irradiation: none) it was 0.875. In addition, the NF-kB reporter is 0.93 in the experiment on A549-Dual [1] (3 µM, irradiation: 8 Gy/4 fr); 0.802 in the experiment with A549-Dual [1] (3 µM, irradiation: none); 1.01 in the experiment on A549-Dual [1] (10 µM, irradiation: 8 Gy/4 fr); 0.874 in the experiment on A549-Dual [1] (10 µM, irradiation: none). Besides, the ISRE reporter with A549-Dual [2] (0.1 µM, irradiation: 8 Gy/4 fr) is 1.01; in the experiment with A549-Dual [2] (0.1 µM, irradiation: none) it was 0.932; in the experiment on A549-Dual [2] (0.3 µM, irradiation: 8 Gy/4 fr) it was 0.98; with A549-Dual [2] (0.3 µM, irradiation: none) it was 0.92; with A549-Dual [2] (1 µM, irradiation: 8 Gy/4 fr) it was 0.864; in the experiment with A549-Dual [2] (1 µM, irradiation: none), 0.885. Besides, the ISRE reporter was 0.932 in the experiment on A549-Dual [2] (3 µM, irradiation: 8 Gy/4 fr); 0.742 in the experiment on A549-Dual [2] (3 µM, irradiation: none); 1.01 with A549-Dual [2] (10 µM, irradiation: 8 Gy/4 fr); 0.904 in the experiment with A549-Dual [2] (10 µM, irradiation: none).

For `CC1(C(=O)O)CCC2(C)CCC3(C)C(=CC(=O)C4C5(C)CCC(OC6OC(C(=O)O)C(O)C(O)C6OC6OC(C(=O)O)C(O)C(O)C6O)C(C)(C)C5CCC43C)C2C1` (stereo not given) [Glycyrrhizin (Glycyrrhizic Acid)], the NF-kB reporter in the experiment with A549-Dual [1] (0.1 µM, irradiation: 8 Gy/4 fr) stood at 0.545; with A549-Dual [1] (0.1 µM, irradiation: none), 0.502; in the experiment with A549-Dual [1] (0.3 µM, irradiation: 8 Gy/4 fr), 0.68; in the experiment on A549-Dual [1] (0.3 µM, irradiation: none) it was 0.487; in the experiment with A549-Dual [1] (1 µM, irradiation: 8 Gy/4 fr), 0.528; with A549-Dual [1] (1 µM, irradiation: none), 0.573. Also, the NF-kB reporter stood at 0.473 with A549-Dual [1] (3 µM, irradiation: 8 Gy/4 fr); 0.576 in the experiment on A549-Dual [1] (3 µM, irradiation: none); 0.566 in the experiment with A549-Dual [1] (10 µM, irradiation: 8 Gy/4 fr); 0.612 in the experiment on A549-Dual [1] (10 µM, irradiation: none). In addition, the ISRE reporter in the experiment on A549-Dual [2] (0.1 µM, irradiation: 8 Gy/4 fr) stood at 0.682; in the experiment on A549-Dual [2] (0.1 µM, irradiation: none) it was 0.644; in the experiment on A549-Dual [2] (0.3 µM, irradiation: 8 Gy/4 fr), 0.683; with A549-Dual [2] (0.3 µM, irradiation: none) it was 0.628; in the experiment on A549-Dual [2] (1 µM, irradiation: 8 Gy/4 fr), 0.541; with A549-Dual [2] (1 µM, irradiation: none) it was 0.88. Moreover, the ISRE reporter with A549-Dual [2] (3 µM, irradiation: 8 Gy/4 fr) was 0.617; in the experiment with A549-Dual [2] (3 µM, irradiation: none) it was 0.893; with A549-Dual [2] (10 µM, irradiation: 8 Gy/4 fr) it was 0.765; with A549-Dual [2] (10 µM, irradiation: none), 0.529.
